# Measured values as given in PubChem BioAssay (NCATS).
# Values joined by “and” are separate entries in the source; they are usually repeats but may differ in a detail not shown here. Identical values can stand only once. Inconclusive means that the source gave no clear call. Such entries were picked first, then a sample of the others. Potencies of inconclusive entries are doubtful fits and often do not repeat. Active and inactive are the calls of the source. Calls follow the shape of the dose curve; as a rule, active = well fitted cell-killing curve with a large enough effect; inconclusive = small, poorly fitted or top-dose-only effect; inactive = no such curve, though single readings can be large or run the other way.
# Experiment: qHTS of pediatric cancer cell lines to identify multiple opportunities for drug repurposing: Primary screen for SK-N-MC cells (AID 1347093)
# Details: SK-N-MC viability, CellTiter-Glo luminescence, 48 h; activity change, negative = cytotoxic: at 46 µM (top of the series)
# Text: Drug repurposing or repositioning has been offered as a strategy for drug development in oncology programs. This approach has special potential for childhood cancers and other rare or orphan diseases, where the expected return on new drug development has been a disincentive to pharmaceuticals.
# In this project we exploit the poly-pharmacology of drugs to discover new indications via phenotypic screening of a panel of 19 well-characterized cell lines derived from solid tumors seen in children and adolescents. The goal is to identify approved drugs with previously unrecognized anticancer properties that has the potential to reveal new mechanisms and biological processes involved in carcinogenesis or drug resistance. We employed a titration-based paradigm (quantitative high-throughput screening or qHTS), where all compounds were tested at multiple concentrations for their effect on cell viability. Concentration-response curves (CRCs) were derived directly from the primary screen, and both potency and efficacy values were used to identify compounds with robust bioactivity profiles. We screened the NIH Chemical Genomics Center (NCGC) Pharmaceutical Collection (NPC) and Mechanism Interrogation Plate (MIPE) small molecule collections of approved and investigational compounds against these cell lines; and measured metabolically active cells after 48 hours of compound treatment as a proxy for cell viability.
# Assay Submitter: Nathalia J. Martinez, National Center for Advancing Translational Sciences, National Institutes of Health, Rockville, MD, USA; email: natalia.martinez@nih.gov
# [1] Shen, M et al. Quantitative high-throughput phenotypic screening of pediatric cancer cell lines identifies multiple opportunities for drug repurposing. Oncotarget 2017 Dec 19;9(4):4758-4772. PMID 29435139.
# The cells were obtained from University of North Carolina (UNC), Pediatric Preclinical Testing Program (PPT), and Coriell Institute (CI).
# qHTS cell viability assay:
# Cells were assayed in growth media at a density of 500-1,000 cells/well. Five microliters of cells were dispensed into 1,536-well, white, solid-bottom, TC-treated plates (Greiner Bio One) using a multidrop dispenser and incubated at 37 degrees C, 5% CO2, under a humidified atmosphere for 5 hours. Twenty-three nanoliters of compounds and controls (neutral control DMSO or positive control bortezomib at final concentration of 2.3 µM) were subsequently transferred by Kalypsys pintool. For primary screens, the MIPE collection was tested at 11-point dilutions (final concentrations range from 0.78 nM to 46 µM) and the NPC collection at 8-point dilutions (final concentrations range from 0.59nM to 46 µM). Compounds tested in follow-up screens were assayed at 11-point dilutions. Cells were incubated for 48 hours, followed by addition of 3 uL of CellTiter-Glo (Promega). After a 15 min incubation at room temperature, samples were analyzed for luminescence intensity using a ViewLux High-throughput CCD imager equipped with clear filters.
# Potency is read from the fitted curve at half-maximal effect; tags tell the direction and shape of the fitted curve.
SMILES,Potency,"activity change, negative = cytotoxic"
COc1ccc(Nc2nccc(NCCO)n2)cc1,"inconclusive: 11.8 µM [cytotoxic, single point]",–
CCCCCCCCCCCC1=C(O)C(=O)C=C(O)C1=O,active: 0.0935 µM,–
O=c1cc(-c2cccc3c2Sc2ccccc2S3)oc(N2CCOCC2)c1,active: 18.7 µM,–
CC[C@H]1OC(=O)[C@H](C)[C@@H](O[C@H]2C[C@@](C)(OC)[C@@H](O)[C@H](C)O2)[C@H](C)[C@@H](O[C@@H]2O[C@H](C)C[C@H](N(C)C)[C@@H]2O)[C@](C)(OC)C[C@@H](C)C(=O)[C@H](C)[C@@H](O)[C@]1(C)O,"inconclusive: 37.2 µM [cytotoxic, single point]",–
Cc1noc(NS(=O)(=O)c2ccc(N)cc2)c1C,"inconclusive: 5.9 µM [cytotoxic, full curve, poor fit]",–
COc1cc(F)c(F)c(Nc2ccc(I)cc2F)c1NS(=O)(=O)C1(C[C@H](O)CO)CC1,active: 16.6 µM,–
CO[C@H]1C[C@@H]2CC[C@@H](C)[C@@](O)(O2)C(=O)C(=O)N2CCCC[C@@H]2C(=O)O[C@H]([C@@H](C)C[C@@H]2CC[C@H](O)[C@H](OC)C2)CC(=O)[C@H](C)C=C(C)[C@@H](O)[C@@H](OC)C(=O)[C@H](C)C[C@H](C)C=CC=CC=C1C,"inconclusive: 37.2 µM [cytotoxic, partial curve, poor fit]",–
COc1cc2c(cc1Cc1cccc(Cl)c1F)c(=O)c(C(=O)O)cn2[C@H](CO)C(C)C,"inconclusive: 37.2 µM [cytotoxic, single point]",–
COc1cc2nc(N3CCN(C(=O)c4ccco4)CC3)nc(N)c2cc1OC,"inconclusive: 14.6 µM [cytotoxic, single point] and active: 11.8 µM",–
CC[C@H]1OC(=O)[C@H](C)C(=O)[C@H](C)[C@@H](O[C@H]2O[C@H](C)C[C@H](N(C)C)[C@@H]2O)[C@](C)(OC)C[C@@H](C)C(=O)[C@H](C)[C@H]2N(CCCCn3cnc(-c4cccnc4)c3)C(=O)O[C@]12C,"inconclusive: 37.2 µM [cytotoxic, single point]",–
CCOc1ccc(Nc2nc(-c3c(C)nc4ccccn34)cs2)cc1,active: 0.0047 µM,–
CO[C@H]1/C=C\O[C@@]2(C)Oc3c(C)c(O)c4c(O)c(c5c(nc6cc(C)ccn65)c4c3C2=O)NC(=O)C(C)=CC=C[C@H](C)[C@H](O)[C@@H](C)[C@@H](O)[C@@H](C)[C@H](OC(C)=O)[C@H]1C,"inconclusive: 3.32 µM [cytotoxic, full curve, poor fit]",–
COC(=O)N[C@H](C(=O)N1CCC[C@@H]1c1ncc(-c2ccc(-c3ccc(-c4cnc([C@@H]5CCCN5C(=O)[C@@H](NC(=O)OC)C(C)C)[nH]4)cc3)cc2)[nH]1)C(C)C,"inconclusive: 37.2 µM [cytotoxic, single point]",–
NC(=O)c1ccc2[nH]ccc2c1,inactive,–
NC(=O)c1ccc2nc(-c3ccc(Oc4ccc(Cl)cc4)cc3)[nH]c2c1,"inconclusive: 20.9 µM [cytotoxic, partial curve, poor fit]",–
COC(=O)C[C@](O)(CCCC(C)(C)O)C(=O)O[C@@H]1C(OC)=C[C@]23CCCN2CCc2cc4c(cc2[C@H]13)OCO4,"inconclusive: 7.43 µM [cytotoxic, full curve]",–
CN1CCC(=C2c3ccccc3CC(=O)c3sccc32)CC1,"inconclusive: 0.003 µM [cytotoxic, full curve, poor fit]",–
Nc1ncnc2nc(-c3ccc(N4CCOCC4)nc3)cc(-c3cccc(Br)c3)c12,"inconclusive: 37.2 µM [cytotoxic, single point]",–
CNCCCC12CCC(c3ccccc31)c1ccccc12,"inconclusive: 29.9 µM [cytotoxic, single point]",–
NC(=O)c1ccc(I)c([N+](=O)[O-])c1,active: 3.72 µM,–

SMILES,Potency,"activity change, negative = cytotoxic"
Cc1ccc(C(=O)c2cc(O)c(O)c([N+](=O)[O-])c2)cc1,active: 23.7 µM and active: 18.7 µM,–
CC[C@H](C=C[C@@H](C)[C@H]1CC[C@H]2[C@@H]3CC=C4C[C@@H](O)CC[C@]4(C)[C@@H]3CC[C@]12C)C(C)C,"inconclusive: 18.2 µM [cytotoxic, single point]",–
COc1ccc(-c2c(-c3ccc(O)cc3O)n[nH]c2C)cc1,"inconclusive: 60.5 µM [cytotoxic, single point]",–
Cc1cn2c(-c3cn[nH]c3)cnc2c(Nc2ccc(C(=O)N3CCNCC3)cc2F)n1,active: 1.66 µM,–
CN(C)C1CCN(C(=O)c2ccc(NC(=O)Nc3nc(N4CCOCC4)nc(N4CCOCC4)n3)cc2)CC1,active: 0.0166 µM,–
CN1N=C(N)c2cn([C@@H]3O[C@H](COP(=O)(O)O)[C@@H](O)[C@@H]3O)c3ncnc1c23,active: 0.0042 µM,–
CCC(C)n1ncn(-c2ccc(N3CCN(c4ccc(OC[C@H]5CO[C@](Cn6cncn6)(c6ccc(Cl)cc6Cl)O5)cc4)CC3)cc2)c1=O (stereo not given in full),"inconclusive: 4.22 µM [cytotoxic, full curve] and active: 1.48 µM",–
COc1ccccc1N1CCN(CC(O)COc2cccc3ccccc23)CC1 (stereo not given),"inconclusive: 26.6 µM [cytotoxic, single point]",–
S=c1nc[nH]c2nc[nH]c12,"inconclusive: 9.44 µM [cytotoxic, partial curve]",–
CCCCCCCCCCCCCC(=O)N[C@H](CO)[C@H](O)c1ccc([N+](=O)[O-])cc1,active: 18.7 µM,–
CN(C)CCC=C1c2ccccc2COc2ccc(CC(=O)O)cc21,"inconclusive: 26.4 µM [cytotoxic, single point]",–
CCOC(=O)C1=C(O)C(=O)N(Cc2ccccc2)C1,inactive,–
COCCOC(=O)C1=C(C)NC2=C(C(=O)CC(c3ccccc3OC)C2)C1c1cccc(O)c1 (stereo not given),active: 18.7 µM,–
O=C(O)C(O)Cc1ccc(O)c(O)c1 (stereo not given),"inconclusive: 37.2 µM [cytotoxic, single point]",–
N#C[C@H]1C[C@H]2C[C@@H]2N1C(=O)[C@@H](N)C12CC3CC(CC(O)(C3)C1)C2,"inconclusive: 7.43 µM [cytotoxic, partial curve, poor fit]",–
CN[C@@H](C)[C@H]1[C@H](O)C[C@@]2(C)[C@@H]3CC[C@H]4C(C)(C)[C@@H](NC)CC[C@@]45C[C@@]35CC[C@]12C,–,inconclusive: -39.7% [cytotoxic]
CC(COc1ccccc1)N(CCCl)Cc1ccccc1 (stereo not given),"inconclusive: 26.4 µM [cytotoxic, single point]",–
CC(=O)OCC(=O)[C@@]1(O)[C@H](C)C[C@H]2[C@@H]3C=C(C)C4=Cc5c(cnn5-c5ccccc5)C[C@]4(C)[C@@H]3[C@@H](O)C[C@@]21C,active: 1.18 µM,–
O=C(O)CCn1c2c(c3ccccc31)C[C@H](NS(=O)(=O)c1ccc(F)cc1)CC2,inactive,–
CC(C)N(CCCNC(=O)Nc1ccc(C(C)(C)C)cc1)C[C@H]1O[C@@H](n2cc(Br)c3c(N)ncnc32)[C@H](O)[C@H]1O,"inconclusive: 37.2 µM [cytotoxic, partial curve, poor fit]",–
